Experimental data as given in PubChem BioAssay AID894 (National Center for Advancing Translational Sciences (NCATS), 2007).
“And” between values parts separate entries of the source, which are not always exact repeats. Equal entries are not always repeated. In all, about 150,000 compounds went through this assay and about 6,500 (4.3%) were called active. The inconclusive results got no clear call from the source; some entries with a clear call stand among them for comparison. Calls follow the shape of the dose curve; as a rule, active = well fitted inhibition curve with a large enough effect (not every such curve was filed as active); inconclusive = small, poorly fitted or top-dose-only effect, or another doubt; inactive = no such curve, though single readings can be large or run the other way. A potency beside an inconclusive call is a rough fit, not a confirmed value.

biological target: 15-hydroxyprostaglandin dehydrogenase [NAD(+)] (Homo sapiens) (UniProt P15428); assay: qHTS Assay for Inhibitors of HPGD (15-Hydroxyprostaglandin Dehydrogenase); details: purified HPGD, NADH fluorescence kinetic, PGE2 substrate; activity change, negative = inhibition: hits give low values
Sequence of UniProt P15428 (P15428 whole entry, looked up): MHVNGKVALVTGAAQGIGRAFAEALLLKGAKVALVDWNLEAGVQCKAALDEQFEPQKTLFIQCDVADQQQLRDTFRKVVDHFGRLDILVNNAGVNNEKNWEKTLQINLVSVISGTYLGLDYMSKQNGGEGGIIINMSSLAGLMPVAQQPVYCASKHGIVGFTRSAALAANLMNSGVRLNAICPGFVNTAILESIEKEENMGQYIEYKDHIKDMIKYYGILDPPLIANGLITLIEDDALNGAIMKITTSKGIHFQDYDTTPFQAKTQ
Summary of the method: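 NADH formation kinetics: reaction with 30 uM PGE2 and 1 mM NAD+ (final), 20 nM enzyme, Tris-HCl pH 8 with Tween 20, after 15 min compound preincubation at room temperature. Fluorescence change, last versus first of five reads.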
% is scaled to controls: 0 for no effect and ±100 for the full control effect; potency is read from the fitted curve at half-maximal effect; tags tell the direction and shape of the fitted curve.

| SMILES | Potency | activity change, negative = inhibition |
| --- | --- | --- |
| Cc1cccc(CNc2ccnc(-c3ccc(N(C)C)cc3)n2)c1 | inconclusive: 25.1 µM [inhibitor, partial curve] | – |
| C/C(=N\NC(=O)c1nonc1N)c1cccs1 | – | inactive: -6.09% |
| Nc1cc(S(N)(=O)=O)ccc1SSc1ccc(S(N)(=O)=O)cc1N | active: 5.01 µM | – |
| c1ccc(-c2cc(N3CCOCC3)nc3ccccc23)cc1 | inconclusive: 31.6 µM [inhibitor, single point] | – |
| Cc1cc(NC(=O)CSc2nnc3c(C)cc4ccccc4n23)no1 | inconclusive: 35.5 µM [inhibitor, single point] | – |
| O=C(/C=C/c1ccccc1)NNC(=O)C1CC1 | inconclusive: 12.6 µM [inhibitor, partial curve, poor fit] | – |
| COc1cc2c3nnc(-c4ccc(F)cc4)c-3cn(Cc3ccc(F)cc3)c2cc1OC | inconclusive: 20 µM [inhibitor, partial curve] | – |
| O=C(Nc1nnc(SCC(=O)N2CCCCC2)s1)c1cccs1 | active: 14.1 µM | – |
| CC(C)Cn1c(-c2cccs2)nc2nc3ccccc3nc21 | inconclusive: 28.2 µM [inhibitor, partial curve] | – |
| CC1CCc2c(sc3nc(CSc4n[nH]c(N)n4)[nH]c(=O)c23)C1 (stereo not given) | – | inactive: -15.7% |
| c1ccc(CN=C2NN=C(c3cc4ccccc4o3)CS2)cc1 | active: 15.8 µM | – |
| COc1ccc(Nc2nnc(-c3ccc(C)cc3)c3ccccc23)cc1C(=O)N1CCCCC1 | inconclusive: 31.6 µM [inhibitor, single point] | – |
| Cc1cc(C(=O)N/N=C/c2ccc(Cl)c([N+](=O)[O-])c2)c(C)n1-c1ccc(F)cc1 | – | inactive: -5.52% |
| COc1ccccc1/C=N/NC(=O)c1ccc(NC(=O)c2ccccc2Br)cc1 | inconclusive: 15.8 µM [inhibitor, partial curve] | – |
| Cc1ccc2cc(CN(Cc3ccccc3)Cc3nnnn3C3CCCC3)c(=O)[nH]c2c1 | – | inactive: -22.4% |
| O=C(/C=C/c1c[nH]c2ccccc12)c1cccc2ccccc12 | inconclusive: 17.8 µM [inhibitor, partial curve, poor fit] | – |
| COC1=CC(=O)CC(C)C12Oc1c(Cl)c(OC)cc(OC)c1C2=O (stereo not given) | inconclusive: 35.5 µM [inhibitor, partial curve, poor fit] and inconclusive: 28.2 µM [inhibitor, partial curve] | – |
| COC(=O)c1ccc(NC(=S)N2CCC(C(N)=O)CC2)cc1 | inconclusive: 35.5 µM [inhibitor, single point] | – |
| CCC1CCCCN1c1nc2c(C=O)c(C)nn2c2ccccc12 (stereo not given) | inconclusive: 31.6 µM [inhibitor, single point] | – |
| O=C(N/N=C\c1ccc(-c2ccc([N+](=O)[O-])cc2)o1)C1COc2ccccc2O1 (stereo not given) | active: 20 µM | – |
| CCc1nn2cc(C(=O)c3cc(C)ccc3O)cnc2c1-c1ccc(F)cc1 | active: 15.8 µM | – |
| CCOC(=O)/C(C#N)=C/c1ccc(OCC(=O)Nc2ccc(C)c(C)c2)c(OC)c1 | inconclusive: 15.8 µM [inhibitor, partial curve] | – |
| COc1ccc(Cl)cc1-c1n[nH]c(=S)n1C1CCCCC1 | active: 10 µM | – |

| SMILES | Potency | activity change, negative = inhibition |
| --- | --- | --- |
| COc1ccccc1C(=O)Nc1ccc(N2CCCCC2)cc1 | – | inactive: -17.7% |
| CCOC(=O)C1CCN(S(=O)(=O)c2ccc3c4c(cccc24)C(=O)N3)CC1 | inconclusive: 35.5 µM [inhibitor, partial curve] | – |
| CC(=O)N=C1SC2CS(=O)(=O)CC2N1c1ccc(-c2nc3ccc(C)cc3s2)cc1 (stereo not given) | inconclusive: 31.6 µM [inhibitor, partial curve] | – |
| O=C1C(Nc2ccccc2)=C/C(=N/S(=O)(=O)c2cccs2)c2ccccc21 | – | inactive: -11.4% |
| O=C(c1cc(-c2ccccc2Cl)on1)N1CCN(C(=O)c2ccco2)CC1 | – | inactive: -19% |
| CCOC(=O)c1ccc(-c2ccc(/C=N/NC(=O)CN(c3ccccc3Cl)S(C)(=O)=O)o2)cc1 | inconclusive: 31.6 µM [inhibitor, partial curve] | – |
| O=C1c2cccnc2C(Nc2ccccc2)N1Cc1ccco1 (stereo not given) | inconclusive: 31.6 µM [inhibitor, single point] | – |
| Cc1cc(S(=O)(=O)NC2CCCCC2)c(C)s1 | inconclusive: 25.1 µM [inhibitor, partial curve] | – |
| O=C(Nc1ccsc1C(=O)N1CCCCCC1)c1ccccc1 | – | inactive: 4.61% |
| CCN(CC)C(=O)c1ccc2c(c1)nnn2C | active: 15.8 µM | – |
| CCOc1ccc(-n2c(=O)c3c4c(sc3n(CC(=O)NCc3ccco3)c2=O)CCC4)cc1 | – | inactive: -3.59% |
| Clc1ccc(C2=NN=C3COc4ccccc4N3C2)cc1 | active: 20 µM | – |
| N=c1ccn(Cc2ccc(Cl)c(Cl)c2)cc1 | – | inactive: -5.5% |
| COC(=O)[C@@H]1C[C@@]2(O)[C@@H](O)[C@@H](O)[C@@H](O)C[C@H]2N1Cc1ccc(N2CCOCC2)cc1 | – | inactive: -7.12% |
| CC1CN(S(=O)(=O)c2ccc(C(=O)Nc3nc(-c4cc5ccccc5o4)cs3)cc2)CC(C)O1 (stereo not given) | inconclusive: 22.4 µM [inhibitor, partial curve, poor fit] | – |
| COc1ccc2oc(-c3ccc(O)cc3)cc(=O)c2c1 | inconclusive: 15.8 µM [inhibitor, partial curve] | – |
| O=C(NCCO)c1ccc2[nH]c3ccccc3c2c1 | inconclusive: 31.6 µM [inhibitor, partial curve] | – |
| COc1ccc(C2CC(=O)Oc3ccc(C(C)(C)C)cc32)cc1 (stereo not given) | inconclusive: 44.7 µM [inhibitor, partial curve] | – |
| COc1ccccc1/C=C1\NC(=S)N(CC2CCCO2)C1=O (stereo not given) | active: 28.2 µM | – |
| Cn1c2ccccc2c2cc(C(=O)N3CCOCC3)sc21 | inconclusive: 28.2 µM [inhibitor, partial curve] | – |
| COc1cc2c(cc1NC(=O)C(C)OC(=O)C1CC(=O)N(Cc3ccco3)C1)oc1ccccc12 (stereo not given) | active: 28.2 µM | – |
| Nc1c(C(=O)C2CC2)sc2nc(-c3ccccc3)cc(C(F)(F)F)c12 | active: 28.2 µM | – |
